Results published in PubChem BioAssay AID1347055 (National Center for Advancing Translational Sciences (NCATS), 2019).
“And” between values parts separate entries of the source, which are not always exact repeats. Identical values can stand only once. Screen size: about 54,000 compounds; about 120 (0.22%) were called active. Inconclusive results, whose numbers are uncertain, are shown with a selection of clear calls. Calls follow the shape of the dose curve; as a rule, active = well fitted inhibition curve with a large enough effect; inconclusive = small, poorly fitted or top-dose-only effect, or effect the other way; inactive = flat fitted curve, though single readings scatter. Where the call is inconclusive, the potency comes from a doubtful curve fit.

target: Fumarate hydratase, mitochondrial (Homo sapiens) (UniProt P07954); assay: Identification of activators of human fumarate hydratase by quantitative high-throughput screening; conditions: FH coupled MDH/diaphorase resazurin fluorescence, 15 min; series mostly up to 79.9 µM; also: the screen sought activators but most active calls are inhibition curves; nearly all actives have a fitted effect of over 45% in size
Chain of UniProt P07954 (P07954 whole entry, looked up): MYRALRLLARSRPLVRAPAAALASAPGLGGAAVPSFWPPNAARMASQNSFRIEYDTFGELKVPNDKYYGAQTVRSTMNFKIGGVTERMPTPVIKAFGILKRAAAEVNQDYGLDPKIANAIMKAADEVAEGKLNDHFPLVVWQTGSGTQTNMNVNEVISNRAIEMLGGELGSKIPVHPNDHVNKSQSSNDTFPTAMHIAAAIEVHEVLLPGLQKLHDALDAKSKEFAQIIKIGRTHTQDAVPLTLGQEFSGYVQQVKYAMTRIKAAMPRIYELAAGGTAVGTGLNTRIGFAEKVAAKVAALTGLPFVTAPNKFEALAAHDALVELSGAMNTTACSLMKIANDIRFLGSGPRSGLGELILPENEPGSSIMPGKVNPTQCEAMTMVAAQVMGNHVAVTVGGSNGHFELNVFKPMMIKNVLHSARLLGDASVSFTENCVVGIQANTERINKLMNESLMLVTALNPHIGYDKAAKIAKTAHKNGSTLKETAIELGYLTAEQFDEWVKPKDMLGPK
Potency is read from the fitted curve at half-maximal effect; tags tell the direction and shape of the fitted curve.

| Structure (SMILES) | Potency |
| --- | --- |
| CCCCCCCCCCCCc1ccc(S(=O)(=O)Nc2nncs2)cc1 | inconclusive: 50.1 µM [inhibitor, partial curve, poor fit] |
| CCn1ccc2c(OCC(=O)Nc3ccc(C)c(Cl)c3)cccc2c1=O | inconclusive: 28.2 µM [inhibitor, partial curve] |
| CCN(CC)c1cc(C)c2cc(NC(=O)c3cc(OC)cc(OC)c3)ccc2n1 | inconclusive: 35.5 µM [inhibitor, partial curve, poor fit] |
| COc1ccc(-c2cn3c(n2)sc2cc(C(=O)NC(C)C45CC6CC(CC(C6)C4)C5)ccc23)cc1 (centres undefined) | inconclusive: 28.2 µM [inhibitor, partial curve, poor fit] |
| COc1ccc(NCc2cccn2-c2nnc(N3CCOCC3)s2)cc1OC | inconclusive: 12.6 µM [inhibitor, partial curve] |
| CCN(CC)C(=O)c1sc2c(c1C)c(=O)n(CCc1ccccc1)c(=O)n2Cc1ccc(C)cc1 | inconclusive: 31.6 µM [inhibitor, partial curve, poor fit] |
| Cc1cc(C)cc(NC(=O)Cn2nc(N3CCN(c4ccccc4)CC3)ccc2=O)c1 | inconclusive: 50.1 µM [inhibitor, single point] |
| CC(C)(O)C1CC=C(C(=O)OCC2OC(Oc3c(O)cc(C(=O)O)cc3O)C(O)C(O)C2O)CC1 (centres undefined) | inactive |
| CCc1nn2c(=O)cc(COC(=O)c3ccc(NC(=O)COc4ccccc4C)cc3)nc2s1 | inconclusive: 3.55 µM [inhibitor, partial curve, poor fit] |
| Cc1ccc(-n2cnc3cc(C(=O)NCCC4=CCCCC4)ccc32)c(C)c1 | inconclusive: 31.6 µM [inhibitor, partial curve] |
| Cc1ccc(Nc2nc(-c3ccccc3)nc3ccccc23)cc1 | inconclusive: 31.6 µM [inhibitor, single point] |
| COc1ccc(N2CCOCC2)c2sc(NC(=O)N3CCC(C)(O)CC3)nc12 | inactive |
| CSc1nc(-c2ccccc2Cl)nc2c1Cc1c(CO)cnc(C)c1O2 | inconclusive: 35.5 µM [inhibitor, single point] |
| O=C1NC(=Nc2ccccc2F)S/C1=C\c1ccc(C(=O)O)cc1 | inconclusive: 35.5 µM [inhibitor, single point] |
| Fc1ccc(Nc2nc(SCc3cccc(Cl)c3)nc3ccccc23)cc1 | inconclusive: 35.5 µM [inhibitor, single point] |
| COc1ncc(-c2ccc3nccc(-c4ccnnc4)c3c2)cc1NS(=O)(=O)c1ccc(F)cc1F | inconclusive: 24.3 µM [inhibitor, partial curve] and inconclusive: 14.1 µM [inhibitor, partial curve] |
| Cc1ccc(NS(=O)(=O)c2ccc(-c3cnc(C4CC4)o3)cc2)cc1N(C)C | inconclusive: 56.2 µM [inhibitor, partial curve, poor fit] |
| COc1cccc(C(=O)Nc2nc3ccc(S(=O)(=O)N4CCCC4)cc3s2)c1 | inconclusive: 28.2 µM [inhibitor, partial curve] |
| Cc1ccc(S(=O)(=O)c2cnc(SCC(=O)Nc3ccc4c(c3)OCCO4)[nH]c2=O)cc1Cl | inactive |
| COC(=O)C1=CO[C@@H](O[C@@H]2O[C@H](CO[C@@H]3O[C@H](CO)[C@@H](O)[C@H](O)[C@H]3O)[C@@H](O)[C@H](O)[C@H]2O)[C@@H]2C(CO)=CC[C@H]12 | inactive |

| Structure (SMILES) | Potency |
| --- | --- |
| Cc1ccccc1NC(=O)c1cn(-c2ccccc2)nc1-c1ccccc1 | inconclusive: 0.355 µM [inhibitor, partial curve, poor fit] |
| Cc1ccc(C(=O)/C=C/c2ccccc2)s1 | inactive |
| O=C(NCCCN1CCN(c2ccc(F)cc2)CC1)c1cc2c(Cl)nc3ccccc3c2s1 | inconclusive: 31.6 µM [inhibitor, partial curve, poor fit] |
| CCN(CC)CCOc1ccc(C(=C(Cl)c2ccccc2)c2ccccc2)cc1 | inactive |
| CC[C@H]1OC(=O)[C@](C)(F)C(=O)[C@H](C)[C@@H](O[C@@H]2O[C@H](C)C[C@H](N(C)C)[C@H]2O)[C@](C)(OC)C[C@@H](C)C(=O)[C@@H](C)[C@H]2N(CCCCn3cc(-c4cccc(N)c4)nn3)C(=O)O[C@]12C | inactive |
| CCOc1ccc(CNCc2c(C(=O)O)c(C)n(Cc3ccc(C)cc3)c2C)cc1 | inactive |
| CC(C)CN(C[C@H](O)[C@H](Cc1ccccc1)NC(=O)O[C@H]1CCOC1)S(=O)(=O)c1ccc(N)cc1 | inactive |
| Cc1cc(C)cc(NC(=O)c2ccc3oc(=O)c(S(=O)(=O)c4ccc(F)cc4)cc3c2)c1 | inactive |
| CCN1CCN(CCCNC(=O)CS(=O)(=O)Cc2nc(-c3ccccc3C)oc2C)CC1 | inactive |
| CCOC(=O)c1noc2ncnc(Nc3cc(Cl)c(OC)cc3OC)c12 | inconclusive: 20 µM [activator, partial curve, poor fit] |
| CC(C)=CCC/C(C)=C/CC/C(C)=C/CSc1ccccc1C(=O)O | inconclusive: 31.6 µM [inhibitor, single point] |
| CC(C)C[C@H](CC(=O)NO)C(=O)N[C@@H](Cc1ccc2ccccc2c1)C(=O)N[C@@H](C)C(=O)NCCN | inactive |
| COc1ccc(NC(=O)c2ccc(-c3ccc(-c4noc(C)n4)cc3C)cc2)cc1N1CCN(C)CC1 | inconclusive: 20 µM [inhibitor, partial curve, poor fit] |
| COc1ccc(CNC(=O)CCc2c(C)c3cc4c(C)c(C)oc4cc3oc2=O)cc1 | inactive |
| Cc1ccc(C(=O)NCC(c2ccc3c(c2)OCO3)N2CCN(c3ccc(F)cc3)CC2)cc1 (centres undefined) | inconclusive: 3.98 µM [inhibitor, partial curve, poor fit] |
| C/C=C1/[C@H](O[C@@H]2O[C@H](CO)[C@@H](O)[C@H](O)[C@H]2O)OC=C(C(=O)OC)[C@H]1CC(=O)OCCc1ccc(OC(=O)C[C@@H]2C(C(=O)OC)=CO[C@@H](O[C@@H]3O[C@H](CO)[C@@H](O)[C@H](O)[C@H]3O)/C2=C/C)cc1 | inconclusive: 2.56 µM [activator, partial curve, poor fit] |
| CCOc1ccc(NC(=O)c2cc3c(C)nn(-c4ccccc4)c3s2)cc1 | inactive |
| CSc1nc(Nc2ccc(C)cc2C)cc(-c2ccccc2)n1 | inconclusive: 28.2 µM [inhibitor, single point] |
| Cc1nc2cc(C(=O)NCCC3=CCCCC3)ccc2n1-c1ccc(Br)cc1 | inconclusive: 35.5 µM [inhibitor, single point] |
| CCn1c2ccccc2c2cc(CN3CCN(Cc4ccc(Cl)cc4)CC3)ccc21 | inconclusive: 15.8 µM [inhibitor, partial curve] |

| Structure (SMILES) | Potency |
| --- | --- |
| CC(C)c1ccc(NC(=O)c2cccs2)c(-c2nc3ccccc3[nH]c2=O)c1 | inconclusive: 35.5 µM [inhibitor, single point] |
| Cc1ccc(CNS(=O)(=O)c2cc(C(=O)Nc3ccc(C(C)C)cc3)ccc2F)cc1 | inconclusive: 50.1 µM [inhibitor, single point] |
| Cc1cc(C)c2c(=O)cc(C(=O)Nc3sc4c(c3C#N)CCCC4)oc2c1 | inconclusive: 35.5 µM [inhibitor, single point] |
| COc1ccc2c(CNC3CCCC3)c(C(=O)O)n(Cc3ccccc3C)c2c1 | inconclusive: 35.5 µM [inhibitor, single point] |
| CC(C)(N)c1cc(C(=O)N[C@@H]2CCc3ccc(Oc4ccnc5c4CCC(=O)N5)cc3C2)cc(C(F)(F)F)c1 | inactive |
| CC(C)C(=O)Nc1cccc(C(F)(F)F)c1 | inactive |
| O=C(Nc1cccc(C(F)(F)F)c1)c1cc(-c2ccc(Cl)cc2)on1 | inactive |
| O=C(NCC(=O)N1CC[C@H](NC2CCC(O)(c3ccc(-c4ncccn4)cn3)CC2)C1)c1cccc(C(F)(F)F)c1 (some centres undefined) | inactive |
| Cc1cc(-c2ncc(CC(=O)Nc3ccc(-c4cnccn4)cn3)cc2C)ccn1 | inactive |
| COc1ccc(S(=O)(=O)c2c(SC)nn(CC(=O)Nc3ccc(C)c(Cl)c3)c2N)cc1 | inconclusive: 22.4 µM [inhibitor, partial curve] |
| Cc1ccc(NC(=O)CN2c3ccccc3S(=O)(=O)c3ccccc32)cc1F | inconclusive: 35.5 µM [inhibitor, partial curve, poor fit] |
| CCN(C(=O)c1sc2cc(OC)ccc2c1Cl)c1ccccc1 | inconclusive: 31.6 µM [inhibitor, partial curve] |
| CC(=O)c1cnc2ccc(-c3cc(Cl)c(O)c(Cl)c3)nc2c1NC1CCC(CN(C)C)CC1 (centres undefined) | inconclusive: 6.93 µM [inhibitor, single point] |
| COc1c2c(c(C)c3c1C(=O)OC3)OC1(C)CC(O)C34OC(OC)(CC(OC(C)=O)C3(C)C1C2)OC4(C)C (centres undefined) | inactive |
| COc1ccccc1N1CCN(S(=O)(=O)c2c(C)sc3ncn(CC(=O)Nc4ccc(C(C)C)cc4)c(=O)c23)CC1 | inconclusive: 35.5 µM [inhibitor, partial curve, poor fit] |
| CCOc1ccc(C(=O)NCCc2sc(-c3ccc(OC)c(OC)c3)nc2C)cc1 | inconclusive: 39.8 µM [inhibitor, partial curve, poor fit] |
| CCn1c(C(=O)NCc2ccc(OC(C)C)cc2)cc2oc3ccccc3c21 | inconclusive: 31.6 µM [inhibitor, single point] |
| COC(=O)c1ccc(NC(=O)CN(CCc2ccccc2)S(=O)(=O)c2ccc(OC)cc2)cc1 | inactive |
| COC(=O)C1=C(C)NC(C)=C(C(=O)OCCN(C)Cc2ccccc2)C1c1cccc([N+](=O)[O-])c1 (centres undefined) | inconclusive: 14.1 µM [inhibitor, partial curve] |
